# Results reported in the supplement of paper PMC10338343.
# ± gives the standard deviation. The list shows a part of the results, in another mix than the full data.
# Tested on: MIWI (PIWIL1) piRISC loaded with L1MC piRNA (30 nt)
# Test: pre-steady-state target cleavage rate (min^-1); MIWI and MILI are mouse PIWI proteins and EfPiwi is from a freshwater sponge; tags in brackets are library labels; higher = faster piRNA-guided slicing of the target
# Conditions: guide: L1MC piRNA 5'p-UAACUAAAUACUAUGCAAGCUGUAGGUCCU; auxiliary factor: 500 nM mouse GTSF1
# How it was run: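 Using HEPES–potassium acetate buffer at 33 °C, 1 nM active affinity-purified piRISC with a single synthetic guide was mixed with 0.1 nM transcribed, DNA-blocked target RNA library for 0–8 or 0–960 min, with or without 500 nM GTSF1 partner protein. Uncleaved targets were sequenced and normalised to depth and to weakly complementary targets, and three trials were pooled with k3 capped at 0.0001 min^-1. A burst-and-steady-state fit gave the pre-steady-state cleavage rate.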
row,Sequence,pre-steady-state target cleavage rate
1,UCGACCUACGAGCUUGCAUAGUAUUUAGUUA,0.737 ± 0.077
2,UGGACCUACAGCUUGCAUAGAUUUUAGUUA,0.126 ± 0.012
3,UCCAGCUACAGCUUGCAUAGUAAUUAGUUA,0.475 ± 0.038
4,UCCUGGAACACGUUGCAUAGUAUUUAGUUA,0.359 ± 0.034
5,UCCACCUAGUGCUUGCAUAGUAUUUAGUUA,0.296 ± 0.035
6,UCCUGGUACGCUUGCAUAGUAUUUAGUUA,0.44 ± 0.056
7,UCCACCUACAGCUUGCAUAGUAUUUAGUAUA,0.5 ± 0.044
8,UCCUGGAUGAGCUUGCAUAGUCUUUAGUUA,0.372 ± 0.03
9,UCGAGCUACAGCUUCCAUAGUAUUUAGUUA,0.0907 ± 0.021
10,UGGACCUACAGCUAGCAUAGAAUUUAGUUA,0.382 ± 0.022
11,UCGACCUACAGGCUUGCAUAGUAUUUAGUUA,1.07 ± 0.045
12,UCGACCUACUAGCUUGCAUAGUAUUUAGUUA,0.784 ± 0.042
13,UCCUGCUACAGCUUGCAUGGUAUUUAGUUA,1.2 ± 0.1
14,UCCUCCUACUGCUUGCAUAGUAUUUAGAAA,0.186 ± 0.031
15,UCCUGGUACAGCUUGGAUAGUAUUUUGUUA,0.359 ± 0.066
16,UCCUGGAACAGCUUGCAUAGAUUUUAGUUA,0.0639 ± 0.0078
17,UCCUGGAACAGCUAGCAUACUAUUUAGUUA,0.282 ± 0.027
18,AGGACCUACAGCUUGCUAGUAUUUAGUUA,0.179 ± 0.041
19,UGGACCUACAGCUUGCAUAGUAUUAACUUA,0.106 ± 0.014
20,UCGACACUACAGCUUGCAUAGUAUUUAGUUA,0.961 ± 0.061
21,UCCUGCUACAGCUUAGCAUAGUAUUUAGUUA,1.25 ± 0.1
22,UCCACCUACAGCUUGCAUAGUAUUUAGAUA,0.501 ± 0.07
23,UGGACCUACAGCUUGCAUAGUAAUUAGAUA,0.224 ± 0.035
24,UGGACCUUCAGCUAGCAUAGUAUUUAGUUA,1.26 ± 0.055
